Assay results from PubChem BioAssay AID485294 (National Center for Advancing Translational Sciences (NCATS), 2010).
Out of some 370,000 compounds screened, about 150 (0.041%) were called active. The inconclusive results got no clear call from the source; some entries with a clear call stand among them for comparison. Calls come from the whole dose curve; as a rule, active = well fitted inhibition curve with a large enough effect; inconclusive = small, poorly fitted or top-dose-only effect; inactive = flat fitted curve, though single readings scatter. No potency is given beside an inconclusive call; the fits are too rough.
Note: nearly all actives have a fitted effect of over 25% in size.
Potency is the fitted concentration of half-maximal effect; tags give direction and shape of the fitted curve.
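Throughout, for activity change, negative = inhibition: 0% = no-compound wells and -100% = no-enzyme wells.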

These compounds were tested against Beta-lactamase (Escherichia coli (strain K12)) (UniProt P00811) (assay: qHTS Inhibitors of AmpC Beta-Lactamase (assay with detergent)). Details: AmpC hydrolysis of nitrocefin, absorbance 480 nm, 0.01% Triton; activity change, negative = inhibition: at 114 µM (top of the series).
Chain of UniProt P00811 (P00811 whole entry, looked up): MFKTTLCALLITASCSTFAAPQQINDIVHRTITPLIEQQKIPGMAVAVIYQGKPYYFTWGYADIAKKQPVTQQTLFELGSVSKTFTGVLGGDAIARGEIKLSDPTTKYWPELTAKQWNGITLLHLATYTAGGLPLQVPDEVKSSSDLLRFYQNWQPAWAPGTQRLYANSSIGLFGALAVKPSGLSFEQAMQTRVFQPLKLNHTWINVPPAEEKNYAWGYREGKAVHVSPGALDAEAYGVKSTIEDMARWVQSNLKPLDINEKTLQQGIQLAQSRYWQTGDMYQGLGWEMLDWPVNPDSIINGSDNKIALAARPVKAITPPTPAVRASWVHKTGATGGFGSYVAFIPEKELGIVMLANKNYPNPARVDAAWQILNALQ
How it was run: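 20 mM phosphate pH 7.0 + 0.01% (detergent screen) or 0.0001% Triton X-100; 5.3 nM AmpC reagent; cpd preinc 15 min RT; nitrocefin (800 uM stock) to start; A480 q20 s × 4 min; Activity was normalised to no-enzyme and no-compound control wells.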
In the case of `COc1cc(N/C(N)=N/c2nc(C)cc(C)n2)cc(OC)c1`, the Potency was inconclusive [inhibitor, single point].
For `CCOC(=O)c1cccc(NC2c3ccccc3C(=O)N2Cc2ccco2)c1` (stereo unspecified), the Potency was inconclusive [inhibitor, partial curve].
In the case of `CC(C)C(NC(=O)OCc1ccccc1)C(=O)N1CCOCCOCCOCC1` (stereo unspecified), the Potency was inconclusive [inhibitor, single point].
In the case of `CCN(CC)CCCNc1nc2cc(OC)c(OC)cc2c2nc(-c3cccnc3)nn12`, the “activity change, negative = inhibition” value was inactive: -6.47%.
For `OC(COC(c1ccccc1)c1ccccc1)CN1CCc2ccccc2C1` (stereo unspecified), the “activity change, negative = inhibition” value was inactive: -3.95%.
`CC(C)N1C(=O)S/C(=C\c2ccc(-c3ccc(Cl)c(C(=O)O)c3)o2)C1=O` was tested, and the Potency was inconclusive [inhibitor, single point].
`Cc1cccc(-c2noc(-c3cccnc3NCc3ccco3)n2)c1` was tested, and the “activity change, negative = inhibition” value was inactive: -3.54%.
`CN(C)S(=O)(=O)c1ccc(C(=O)OCC(=O)NC(=O)NCc2ccccc2)cc1` was tested, and the Potency was inconclusive [inhibitor, full curve, poor fit].
With `CC(C)c1ccc(OCC(=O)Nc2c(Cl)ccc3nsnc23)cc1` the “activity change, negative = inhibition” value was inactive: -1.69%.
`CC(C)(C)c1ccccc1NC(=O)c1ccc2c(c1)SC1=NS(=O)(=O)CCN12` was tested, and the “activity change, negative = inhibition” value was inactive: 3.41%.
In the case of `COC(=O)Cc1[nH]nc2c1C(c1cccc(OC)c1OC)C(C#N)=C(N)O2` (stereo unspecified), the Potency was inconclusive [inhibitor, full curve, poor fit].
`CCCCn1c(=N)n(CC(=O)c2ccc(OC)cc2)c2ccccc21` was tested, and the “activity change, negative = inhibition” value was inactive: 4.23%.
`CN(c1ccccc1)S(=O)(=O)c1ccc(C(=O)OCC(=O)NCc2ccco2)cc1` was tested, and the Potency was inconclusive [inhibitor, partial curve, poor fit].
With `COc1cc(OC)cc(C(=O)OCC(=O)NC(c2ccccc2)c2ccccc2)c1` the “activity change, negative = inhibition” value was inactive: 6.54%.
With `COc1ccc(N2CCN(C(=O)c3oc4ccccc4c3NC(=O)Cc3cccc(OC)c3)CC2)cc1` the Potency was inconclusive [inhibitor, full curve, poor fit].
In the case of `C=CCn1c(C)cc(C(=O)CSc2nc3ccccc3o2)c1C`, the Potency was inconclusive [inhibitor, full curve].
With `Cc1cc(NCCN2CCOCC2)n2c(nc3ccccc32)c1C#N` the Potency was inconclusive [inhibitor, full curve, poor fit].
In the case of `COC(=O)c1ccc(NS(=O)(=O)c2cc3c4c(c2)CCC(=O)N4CCC3)cc1`, the Potency was inconclusive [inhibitor, full curve, poor fit].
With `O=C1CN(C(=O)c2ccccc2F)C(c2ccccc2)c2cc(Cl)ccc2N1` (stereo unspecified) the “activity change, negative = inhibition” value was inactive: 0.881%.
In the case of `O=C(CCSc1ccc(Cl)cc1)NC1CCCC1`, the Potency was inconclusive [inhibitor, full curve, poor fit].
With `COc1ccc([N+](=O)[O-])cc1N/C(=N/S(=O)(=O)c1ccccc1)c1ccccc1` the Potency was inconclusive [inhibitor, partial curve].
With `C/C(=N\NC(=O)C1COc2ccccc2O1)c1ccccn1` (stereo unspecified) the Potency was inconclusive [inhibitor, partial curve, poor fit].
In the case of `CCCCCC(O)(CCN1CCCCC1)c1ccc(OCC)cc1` (stereo unspecified), the Potency was inconclusive [inhibitor, full curve, poor fit].
With `NC(=O)c1nn(-c2ccccc2)nc1NC(=O)Cn1nnc(-c2ccccc2)n1` the Potency was inconclusive [inhibitor, full curve].
In the case of `Cc1cc(C)nc(SCC(=O)N/N=C/c2cccc([N+](=O)[O-])c2)n1`, the Potency was inconclusive [inhibitor, full curve, poor fit].
With `Cc1c(C(=O)N2CCC(C)CC2)sc2ncn(CC(=O)N3CCC(C)CC3)c(=O)c12` the Potency was inconclusive [inhibitor, single point].
`CSc1nc2ccc(S(N)(=O)=O)cc2s1` was tested, and the Potency was inconclusive [inhibitor, full curve].
For `COc1cccc(NC(=O)COC(=O)c2ccccc2F)c1`, the “activity change, negative = inhibition” value was inactive: -4.24%.
With `O=C(N/N=C/c1cccc(Oc2ccccc2)c1)c1ccccc1F` the “activity change, negative = inhibition” value was inactive: -10%.
In the case of `O=C(CCC(=O)N1CCOCC1)NCCc1ccc(Cl)cc1Cl`, the Potency was inconclusive [inhibitor, full curve].
In the case of `O=C1/C(=C\c2ccc(O)c(O)c2)SC(=S)N1Cc1ccccc1`, the “activity change, negative = inhibition” value was inactive: -4.87%.
With `CCOC(=O)C1(CCCc2ccccc2)CCN(S(=O)(=O)N(C)C)CC1` the Potency was inconclusive [inhibitor, partial curve, poor fit].
For `CC(C)C[C@H](NC(=O)N1CCn2c1nc1ccccc12)C(=O)NCCc1ccccc1`, the Potency was inconclusive [inhibitor, full curve, poor fit].
For `COc1cccc(C(c2c(N)n(C)c(=O)n(C)c2=O)C(C)[N+](=O)[O-])c1` (stereo unspecified), the “activity change, negative = inhibition” value was inactive: 3.44%.
In the case of `Cc1ccccc1NC(=O)CSc1ccc(-c2ccc(-n3cccn3)cc2)nn1`, the Potency was inconclusive [inhibitor, full curve].
For `Cc1nn(Cc2cccc(C(=O)NCC(C)C)c2)c(C)c1Br`, the Potency was inconclusive [inhibitor, full curve, poor fit].
With `C=CCNC(=O)c1ccc(Sc2ccccc2)c([N+](=O)[O-])c1` the Potency was inconclusive [inhibitor, full curve, poor fit].
In the case of `CC(C)c1onc(C(=O)N(C)C2CCCCC2)c1[N+](=O)[O-]`, the Potency was inconclusive [inhibitor, partial curve, poor fit].
In the case of `O=C(N/N=C/c1ccc(N2CCCCC2)o1)c1ccccc1[N+](=O)[O-]`, the Potency was inconclusive [inhibitor, full curve, poor fit].
For `COc1ccc2c(-c3cc4ccc(OCc5ccc(F)cc5)cc4oc3=O)cc(=O)oc2c1`, the Potency was inconclusive [inhibitor, full curve, poor fit].
In the case of `O=C(Nc1nnc(CCOCCOCCc2nnc(NC(=O)c3ccco3)s2)s1)c1ccco1`, the Potency was inconclusive [inhibitor, single point].
With `Cc1cc(C(=O)CN2C(=O)NC3(CCCCC3C)C2=O)c(C)n1Cc1cccs1` (stereo unspecified) the Potency was inconclusive [inhibitor, partial curve].
For `O=C(NC1CCCC1)C1CCC(CNS(=O)(=O)c2ccccc2)CC1` (stereo unspecified), the “activity change, negative = inhibition” value was inactive: -7.1%.
In the case of `COc1cccc(C2CC(c3ccccc3Cl)n3nnnc3N2)c1` (stereo unspecified), the Potency was inconclusive [inhibitor, full curve, poor fit].
In the case of `CN(Cc1ccccc1)C(=O)Cn1c(=O)oc2cc(S(=O)(=O)N3CCCC3)ccc21`, the Potency was inconclusive [inhibitor, partial curve].
`COc1ccc(OC)c(-n2c(-c3cc(-c4ccccc4)n[nH]3)n[nH]c2=S)c1` was tested, and the Potency was inconclusive [inhibitor, partial curve, poor fit].
`CCCN(CCC)C(=O)C1CCN(c2cc(C)nc3c(-c4ccc(Cl)cc4)c(C)nn23)CC1` was tested, and the “activity change, negative = inhibition” value was inactive: 13.4%.
With `O=c1[nH]c(=O)n(C2CCCCCC2)c(O)c1C=NCc1ccc(F)cc1` the Potency was inconclusive [inhibitor, full curve, poor fit].
For `O=C1C[C@H]2[C@H](CO)[C@@H](OC(=O)c3ccc(-c4ccccc4)cc3)C[C@H]2O1`, the “activity change, negative = inhibition” value was inactive: 2.02%.
In the case of `Cc1cccc(C(=O)Nc2ccc3c(c2)C(=O)N(CC(C)C)C3=O)c1`, the Potency was inconclusive [inhibitor, full curve, poor fit].
In the case of `Cc1nc2ccccc2c(=O)n1-c1cccc(O)c1`, the Potency was inconclusive [inhibitor, full curve].
`C/C(=N/O)c1ccc2c(c1)OCCOCCOc1cc(/C(C)=N/O)ccc1OCCOCCO2` was tested, and the Potency was inconclusive [inhibitor, full curve, poor fit].
`Fc1ccccc1N1CCN(Cc2cnc(Cl)s2)CC1` was tested, and the Potency was inconclusive [inhibitor, partial curve, poor fit].
With `Cc1ccc2c(c1)N(C(=O)CCC(=O)NC1CCN(Cc3ccccc3)CC1)CC(C)O2` (stereo unspecified) the Potency was inconclusive [inhibitor, partial curve, poor fit].
`CC(=O)c1cc(F)ccc1OCC(=O)N1CCN(c2ccc(F)cc2)CC1` was tested, and the “activity change, negative = inhibition” value was inactive: 3.95%.
With `Cn1nnnc1SCCNCC#Cc1ccccc1` the Potency was inconclusive [inhibitor, partial curve, poor fit].
With `Cn1c(=O)c2sccc2n(Cc2ccc(Br)cc2)c1=O` the Potency was inconclusive [inhibitor, full curve, poor fit].
With `COc1ccc(-c2cc(C(=O)N3CCCCC3)c3ccccc3n2)cc1` the Potency was inconclusive [inhibitor, single point].
For `COc1cc(C(=O)NCCc2cn3ccc(C)cc3n2)cc(OC)c1OC`, the Potency was inconclusive [inhibitor, full curve].
`CCc1ccc(NC(=S)Nn2cnnc2)cc1` was tested, and the “activity change, negative = inhibition” value was inactive: 4.81%.
With `C/C(CC(=O)Nc1ccc(Cl)cc1)=N\NC(=O)C(=O)N1CCCCC1` the “activity change, negative = inhibition” value was inactive: -1.53%.
With `CSCCC(NC(=O)c1ccc(Cl)cc1)C(=O)OCC(=O)N1CCCC1=O` (stereo unspecified) the Potency was inconclusive [inhibitor, full curve, poor fit].
With `CCN(C(=O)COC(=O)c1c(C)c(-c2ccccc2)nc2ccccc12)C1CCS(=O)(=O)C1` (stereo unspecified) the Potency was inconclusive [inhibitor, partial curve].
For `CCCCn1c(=O)c2oc3ccccc3c2n(Cc2ccc(C)cc2)c1=O`, the “activity change, negative = inhibition” value was inactive: 9.52%.
In the case of `Cn1c(=O)c2c(nc3sccn32)n(C)c1=O`, the Potency was inconclusive [inhibitor, full curve, poor fit].
`Cn1ccc(C(=O)OCC(=O)Nc2ccccc2Cl)n1` was tested, and the Potency was inconclusive [inhibitor, partial curve, poor fit].
